Where “and” joins values, the source holds several entries; their conditions need not be identical. Identical values can stand only once. About 100 (0.03%) of roughly 330,000 compounds were called active. Not shown: some 1% with an inconclusive outcome. Calls follow the shape of the dose curve; as a rule, active = well fitted inhibition curve with a large enough effect; inconclusive = small, poorly fitted or top-dose-only effect; inactive = flat fitted curve, though single readings scatter. Only a part is listed here, and it is no random draw.
tested on: Chaperonin Mm-Cpn (Methanococcus maripaludis); test: Inhibitors of TCP-1 ring complex (TRiC) of Methanococcus maripaludis (MmCpn): qHTS; conditions: purified Mm-Cpn ATPase, ADP Transcreener TR-FRET; at 76.9 µM (top of the series); also: nearly all actives have a fitted effect of over 80% in size
Text: The eukaryotic chaperonin TRiC (for TCP-1 ring complex) is an essential and conserved chaperone required for the folding and activation of 10-15% of the proteins encoded by the human genome. […] The TRiC complex consist of two stacked 7-9 membered rings, each containing a central cavity. Substrates are folded within the cavity in an ATP-dependent manner. TRiC is a complex of eight different, essential proteins. As each of the genes encoding the eight subunits is essential for cell viability and no protocol has been developed to over-express this enzyme to high levels. That is why several groups studying the TRiC chaperonin have turned to the archaeal homolog of TRiC, Methanococcus maripaludis (Mm-CPN), and have used this enzyme as a model system for the study of the type II chaperonin family. Small molecule inhibitors of the Mm-CPN enzyme would be extremely useful to study the mechanism of chaperonin activity. Importantly, TRiC and Mm-CPN both require ATP hydrolysis for function. Furthermore, the ATP binding sites are highly conserved among these type II chaperonins. This provides us with an easy, well tested and straightforward assay to identify inhibitors of chaperonin activity. The Mm-CPN assay was developed in 1536-well plate format using the HTRF Transcreener ADP assay kit (Cisbio, Bedford, MA). This assay applied the time resolved fluorescence resonance energy transfer (TR-FRET) principle. ATP in the presence of Mm-CPN is converted to ADP + Pi. An antibody labeled with Eu3+-Cryptate specific and bound to ADP labeled with […] (d2) competes with the unlabeled ADP generated by Mm-CPN. The resulting TR-FRET signal is inversely proportional to the concentration of ADP in the sample. In this assay a reduction in TR-FRET signal is observed with ATP turnover. NIH Chemical Genomics Center [NCGC] NIH Molecular Libraries Probe Centers Network [MLPCN] MLPCN Grant: DA030554-01A1 Assay Submitter (PI): Judith Frydman, Stanford University
Purified Mm-CPN was supplied by the laboratory of Dr. Judith Frydman. Protein samples were stored at -80C as single use aliquots. Protein was thawed in ambient temperature water bath and placed on ice once thawed. Buffer was prepared fresh day of screen. The buffer composition below was used to prepare the working solution of the Mm-CPN protein and ATP substrate. The buffer is comprised of 30 mM TRIS pH 7.4, 100mM KCl, 5mM MgCl2, and 1mM DTT. A final concentration of 25nM Mm-CPN and 10uM ATP per well were used in the screen. Instructions according to the manufacturer were followed for the ADP Transcreener kit. Used 1536 well Greiner white, medium binding (MB), solid bottom plates. Plates were read on the PerkinElmer EnVision plate reader using Excitation = 320 nm and Emission = […], 665 nm. Protocol- 1.Dispense 1.5ul per well of working [Mm-CPN] = 50nM (or 75 ng / well) 2.Spin plate at 1000 rpm for 30 seconds 3.23nl of compound transferred per well 4.Incubate at 37degC for 10 minutes 5.Dispense 1.5ul per well of working [ATP] = 20uM 6.Incubate at 37degC for 30 minutes 7.Dispense 3ul per well of Anti-ADP Cryptate / ADP-d2 mix (prepared as instructed by Cisbio) 8.Incubate at ambient for 30 minutes 9.Read using EnVision
% is scaled to controls: 0 for no effect and ±100 for the full control effect.

**Q.** For `C=C1[C@H]2CC[C@H]3[C@]4(C)C[C@H](O[C@H]5O[C@H](CO)[C@@H](OS(=O)(=O)O)[C@H](OS(=O)(=O)O)[C@H]5OC(=O)CC(C)C)C[C@@H](C(=O)O)[C@H]4CC[C@]3(C2)[C@H]1O`, which activity, negative = inhibition is on record?
**A.** Its activity, negative = inhibition is inactive: -1.19%.

**Q.** With `O=C1NCCOC(=O)[C@H](Cc2ccc(F)cc2)CC/C=C/C[C@H]1CC(=O)N(CCO)Cc1ccccc1` as the compound, how does the activity, negative = inhibition read?
**A.** Its activity, negative = inhibition is inactive: -2.51%.

**Q.** Which activity, negative = inhibition does the source give for `O=C1NCCOC(=O)[C@@H](Cc2ccc(F)cc2)CC/C=C/C[C@H]1CC(=O)N(CCO)Cc1ccccc1` here?
**A.** The activity, negative = inhibition was inactive: 3.1%.

**Q.** Which activity, negative = inhibition does the source give for `O=C1NCCOC(=O)[C@@H](Cc2ccc(F)cc2)CC/C=C/C[C@@H]1CC(=O)N(CCO)Cc1ccccc1` here?
**A.** The activity, negative = inhibition was inactive: -2.81%.

**Q.** With `NC(N)=Nc1ccc2[nH]c3c(c2c1)C[C@@]1(O)[C@H]2Cc4ccc(O)c5c4[C@@]1(CCN2CC1CC1)C3O5` (stereo partly drawn) as the compound, how does the activity, negative = inhibition read?
**A.** The activity, negative = inhibition was inactive: -0.121%.

**Q.** With `CSc1ncc(Cl)c(C(=O)O)n1` (tested in a mixture with another compound) as the compound, how does the activity, negative = inhibition read?
**A.** Its activity, negative = inhibition is inactive: -0.62%.

**Q.** Which activity, negative = inhibition does the source give for `C=CCN1CC[C@]23c4c5ccc(O)c4O[C@H]2C(=O)CC[C@@]3(O)[C@H]1C5` here?
**A.** Its activity, negative = inhibition is inactive: -0.634% and inactive: -2.16%.

**Q.** For `Clc1ccc2c(c1)CCc1cccnc1C2=C1CCNCC1`, which activity, negative = inhibition is on record?
**A.** Its activity, negative = inhibition is inactive: -6.58%.
